Experimental data reported in US12729231B2, “Fusion protein having triple activity and use thereof” (SHANGHAI MINWEI BIOTECHNOLOGY CO., LTD, priority 2023, dated 2026).

T1: human GIP receptor (Homo sapiens, UniProt P48546)
T1 construct: expressed in transfected cells; host or cells: CHO-K1
T1 sequence (P48546 22-466): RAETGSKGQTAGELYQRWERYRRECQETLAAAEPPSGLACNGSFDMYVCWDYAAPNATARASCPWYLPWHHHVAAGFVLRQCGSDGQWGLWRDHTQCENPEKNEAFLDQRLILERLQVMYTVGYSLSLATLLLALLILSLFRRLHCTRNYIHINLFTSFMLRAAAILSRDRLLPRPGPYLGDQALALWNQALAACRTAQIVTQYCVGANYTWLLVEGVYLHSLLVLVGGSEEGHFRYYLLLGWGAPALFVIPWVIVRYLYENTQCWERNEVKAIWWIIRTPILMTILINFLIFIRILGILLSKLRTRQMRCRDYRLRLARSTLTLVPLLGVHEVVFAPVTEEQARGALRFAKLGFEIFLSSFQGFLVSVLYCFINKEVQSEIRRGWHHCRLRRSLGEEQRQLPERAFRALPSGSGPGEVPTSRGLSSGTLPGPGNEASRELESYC


Tests used:
human GLP-1 receptor = biological target: T2, human GLP-1 receptor (Homo sapiens, UniProt P43220); assay: in vitro GLP-1 activity, CRE-luciferase reporter in CHO-K1 cells; type: cell-based; conditions: CHO-K1 cells expressing human GLP-1 receptor and CRE-luciferase, 5 hours incubation
T2 construct: expressed in transfected cells; host or cells: CHO-K1
Protocol: (§1) CHO-K1 cells expressing human GLP-1 receptor and CRE-luciferase were used to detect the in vitro GLP-1 activity of the fusion proteins. The cells were inoculated in a 96-well plate at a density of 30,000 cells/well/100 μL, and cultured at 5% CO2, 37° C. for 1 hour. For each protein sample to be tested, the protein solution was diluted 9 times with a 4-fold gradient with PBS containing 2% HAS starting from a certain concentration, so that 10 dilutions of each sample with different concentrations were obtained. 50 μL of each dilution was taken out and added into the 96-well plate inoculated with cells, and the 96-well plate was incubated at 5% CO2, 37° C. for 5 hours. The 96-well plate was taken out from the incubator and placed at room temperature for 10 minutes of equilibration, and 100 μL of reaction solution was added into each well. After the 96-well plate was shaken at 200 rpm for 10 minutes, the fluorescence reading of each well was detected by a multi-function microplate reader. Using the sample concentration as the abscissa and the fluorescence reading as the ordinate, a curve was drawn and the median effective concentration (EC50) of each sample was calculated.

human GIP receptor = biological target: T1, human GIP receptor; assay: in vitro GIP activity, CRE-luciferase reporter in CHO-K1 cells; type: cell-based; conditions: CHO-K1 cells expressing human GIP receptor and CRE-luciferase, 5 hours incubation
Protocol: as §1, with “GIP” for “GLP-1”

db/db mice = assay: blood glucose reduction by multiple subcutaneous injections in db/db diabetes mice; type: in vivo; conditions: 30 nmol/kg subcutaneous twice a week
Protocol: After adaptive feeding of animals, fasting blood glucose following a 4-hour fasting period was measured once a week. Except for the 6 mice in control group (Wild type), db/db mice were divided into groups for experiments after their 4-hour fasting blood glucose levels reached the high blood glucose standard (>16.7 mmol/L). Twenty-four male db/db mice that reached the high blood glucose standard were divided into 4 groups based on their blood glucose levels and body weight, with 6 mice in each group. […] After the experimental animals were grouped, corresponding drug treatment was administered subcutaneously (twice a week) at a dose of 30 nmol/kg. During the administration period, random blood glucose and fasting blood glucose (fasting for 4 hours) were measured twice a week.

DIO mice = assay: body weight reduction by multiple subcutaneous injections in DIO mice; type: in vivo
Protocol: 7-week-old C57BL/6Nju mice were fed with a high-fat diet (of about 20% protein and about 60% fat) for 12 weeks for modeling. Feeding conditions: 12 hours of light and 12 hours of darkness cycle every day, ad libitum feeding, temperature 20-25° C., relative humidity 40-70%, ventilation frequency of 10-15 times/hour. According to body weight, water consumption, and food intake, the mice were randomly divided into groups the day before administration. […] Subcutaneous injection treatment was administered twice a week for 5 consecutive weeks, for a total of 10 administrations. After the administration, the body weight, OGTT, body fat ratio, blood lipids and liver function of the mice were measured. The data are shown as mean±standard deviation, and statistically analyzed by One-Way ANOVA.

[1] = DIO mice, 30 nmol/kg subcutaneous twice a week for 5 weeks, mean of 6 mice
[2] = DIO obese mice, 30 nmol/kg subcutaneous twice a week for 5 weeks, mean of 6 mice

T2 sequence (P43220 24-463): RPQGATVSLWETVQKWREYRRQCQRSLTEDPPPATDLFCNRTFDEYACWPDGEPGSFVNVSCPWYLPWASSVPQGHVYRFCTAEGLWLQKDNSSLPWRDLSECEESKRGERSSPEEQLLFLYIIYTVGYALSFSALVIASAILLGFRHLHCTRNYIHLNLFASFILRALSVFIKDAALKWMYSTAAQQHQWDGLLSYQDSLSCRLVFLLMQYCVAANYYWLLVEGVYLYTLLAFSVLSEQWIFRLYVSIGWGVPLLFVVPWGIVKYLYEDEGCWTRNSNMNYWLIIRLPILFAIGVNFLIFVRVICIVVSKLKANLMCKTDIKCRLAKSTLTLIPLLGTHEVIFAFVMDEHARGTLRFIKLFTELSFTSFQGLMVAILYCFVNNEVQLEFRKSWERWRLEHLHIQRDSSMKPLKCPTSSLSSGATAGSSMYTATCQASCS

| Molecule | EC50 (human GLP-1 receptor) [pM] | EC50 (human GIP receptor) [pM] | blood glucose level compared with normal control group (db/db mice) | hypoglycemic effect compared with Tirzepatide and Fc-FGF21 (db/db mice; random and fasting blood glucose (FIG. 1, FIG. 2)) | ALT (DIO mice; [1]) [U/L] | AST (DIO mice; [1]) [U/L] | Blood glucose (fasting) (DIO mice; [1]) [mmol/L] | LDL-C (plasma low-density lipoprotein cholesterol) (DIO mice; [1]) [mmol/L] | TC (plasma total cholesterol) (DIO mice; [1]) [mmol/L] | effect on blood glucose, plasma lipids and liver function (DIO mice; DIO obese mice) | % Change in weight since inception (DIO mice; [2]) [%] | Body fat ratio (DIO mice; [2]) [%] | effect on body weight and body fat ratio (DIO mice; DIO obese mice, compared with Tirzepatide and Fc-FGF21) |
| --- | --- | --- | --- | --- | --- | --- | --- | --- | --- | --- | --- | --- | --- |
| 12C12-F: GLP-1/GIP mutant 12C12 (SEQ ID NO 19)-linker-IgG4 Fc-linker-FGF21 mutant fusion protein, SEQ ID NO 7 (protein, 12C12-F fusion protein) HSEGTFTSDYSILLDKIAQKAFIEWLIAGGPSSGAPPPSGGGGSGGGGSGGGGSA[human IgG4 Fc with S228P F234A L235A (EU numbers) not listed]GGGGSGGGGSGGGGSHPIPDSSPLLQFGGQVRQVYLYTDDAQQTEAHLEIREDGTVGGAADQSPESLLQLKALKPGVIQILGVKTSRFLCQRPDGALYGSLHFDPEACSFRERLLEDGYNVYQSEAHGLPLHLPGNKSPHRDPAPRGPARFLPLPGLPPALPEPPGILAPQPPDVGSSDPLSMVGNSTGRSPSYAS | 642 | 6 | basically identical to that of the normal control group | significantly better than that of Tirzepatide (GLP-1/GIP dual activity) and Fc-FGF21 (FGF21 single activity) | 14.683 | 55.183 | 5.2 | 0.383 | 3.348 | significantly reduce blood glucose, plasma total cholesterol and low-density lipoprotein cholesterol, improve liver function, and basically return them to normal | −39.73 | 16.16 | significantly reduce the body weight and body fat ratio of DIO obese mice, and the reduction extent is significantly greater than that of the control Tirzepatide and Fc-FGF21 |
| 12C2-F: fusion protein with R1 = 12C2 (SEQ ID NO 9), linker, Fc, linker, FGF21 element (protein) HSEGTFTSDYSIYLDKIAQKAFIEWLIAGGPSSGAPPPSGGGGSGGGGSGGGGSA[human IgG4 Fc with S228P F234A L235A (EU numbers) not listed]GGGGSGGGGSGGGGSHPIPDSSPLLQFGGQVRQVYLYTDDAQQTEAHLEIREDGTVGGAADQSPESLLQLKALKPGVIQILGVKTSRFLCQRPDGALYGSLHFDPEACSFRERLLEDGYNVYQSEAHGLPLHLPGNKSPHRDPAPRGPARFLPLPGLPPALPEPPGILAPQPPDVGSSDPLSMVGNSTGRSPSYAS | 2660 | 73 |  |  |  |  |  |  |  |  |  |  |  |
